PMC4336329 (PLoS ONE, 2015)
Out of some 310,000 compounds screened, about 2,200 (0.71%) showed an effect of 50% or more. The effect is printed as a negative number. This is one part of the list.

The molecules below were run against human ether-à-go-go-related gene (hERG) potassium channel (human, UniProt Q12809) (assay: primary screen, population patch clamp on CHO cells stably expressing hERG).
Sequence of human ether-à-go-go-related gene (hERG) potassium channel (Q12809 whole entry, looked up): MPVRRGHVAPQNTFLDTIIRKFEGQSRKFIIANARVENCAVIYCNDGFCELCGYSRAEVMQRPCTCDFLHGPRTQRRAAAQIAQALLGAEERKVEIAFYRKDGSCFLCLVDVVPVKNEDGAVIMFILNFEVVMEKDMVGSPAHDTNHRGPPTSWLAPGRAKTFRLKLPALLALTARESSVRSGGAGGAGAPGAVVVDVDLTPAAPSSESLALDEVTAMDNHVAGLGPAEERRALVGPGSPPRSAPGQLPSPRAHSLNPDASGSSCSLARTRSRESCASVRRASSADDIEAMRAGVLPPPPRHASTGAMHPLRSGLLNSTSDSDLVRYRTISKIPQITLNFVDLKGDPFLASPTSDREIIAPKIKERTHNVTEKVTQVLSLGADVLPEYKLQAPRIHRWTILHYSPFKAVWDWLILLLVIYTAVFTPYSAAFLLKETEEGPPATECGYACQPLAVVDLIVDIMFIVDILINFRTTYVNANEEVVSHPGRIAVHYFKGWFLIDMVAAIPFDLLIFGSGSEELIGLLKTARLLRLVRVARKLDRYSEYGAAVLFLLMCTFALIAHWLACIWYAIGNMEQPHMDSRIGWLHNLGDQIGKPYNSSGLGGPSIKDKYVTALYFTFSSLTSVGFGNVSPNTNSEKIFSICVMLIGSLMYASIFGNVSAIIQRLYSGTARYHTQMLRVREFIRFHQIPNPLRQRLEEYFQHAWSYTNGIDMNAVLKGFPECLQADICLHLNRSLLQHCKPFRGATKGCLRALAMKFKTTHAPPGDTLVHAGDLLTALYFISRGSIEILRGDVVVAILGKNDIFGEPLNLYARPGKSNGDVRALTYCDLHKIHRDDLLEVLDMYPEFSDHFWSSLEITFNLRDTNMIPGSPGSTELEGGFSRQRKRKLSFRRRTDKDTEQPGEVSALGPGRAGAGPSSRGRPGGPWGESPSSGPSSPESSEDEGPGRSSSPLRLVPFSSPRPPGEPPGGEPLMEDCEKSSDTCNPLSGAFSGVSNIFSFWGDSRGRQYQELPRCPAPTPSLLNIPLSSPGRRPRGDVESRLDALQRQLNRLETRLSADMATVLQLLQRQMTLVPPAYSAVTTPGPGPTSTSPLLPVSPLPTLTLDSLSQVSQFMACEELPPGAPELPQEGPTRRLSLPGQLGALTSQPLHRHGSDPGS

SMILES | hERG current change (%, negative = inhibition) at 1uM [%]
COc1[nH]c(/N=C/c2ccccc2)c(C#N)c1C#N | 13.2
CN(C)CCCn1c(SCC(=O)Nc2nc(-c3cccc(Br)c3)cs2)nc2ccccc2c1=O | -3.37
O=[N+]([O-])c1ccc(Cl)cc1NCc1cccnc1 | 14.3
CCOC(=O)C1=C(C)N=c2s/c(=C/c3ccc(OCC(=O)O)cc3)c(=O)n2C1c1ccc(F)cc1 (stereo not shown) | 11.1
CCOc1ccc2[nH]cc(S(=O)(=O)c3ccc(F)cc3)c(=O)c2c1 | 2.07
CN(C)c1cccc2c(S(=O)(=O)N3CCCC3)cccc12 | 18.2
COc1ccccc1-c1ccc(Nc2cccc(C(F)(F)F)c2)nn1 | 17.8
O=C(O)c1cc2c(cc1NC(=O)c1c(F)cccc1F)OCCCO2 | 7.9
CC(CC(=O)Nc1nc2ccccc2[nH]1)n1ccnc1 (stereo not shown) | 2.92
O=C(c1cccc(S(=O)(=O)Nc2ccc(Br)cc2)c1)N1CCCC1 | 5.53
O=c1c2ccccc2c(C=Nc2cccc(S(=O)(=O)NCc3ccco3)c2)c(O)n1-c1ccc(Cl)cn1 | 7.7
Cc1ccc(-n2ncc3c(NNC(=O)c4cccs4)ncnc32)cc1 | 9.2
O=c1[nH][nH]cc1C=Nc1ccc(Cl)cc1 | 5.81
CCOc1ccc(/C=C2\SC(=O)N(CCNC(=O)C3COc4ccccc4O3)C2=O)cc1OC (stereo not shown) | 8.84
COc1cc(/C=N/NC(=O)Cc2nnc(N)s2)cc(OC)c1OC | 20.3
CCN1CCN(C(=S)Nc2cccc(Cl)c2)CC1 | 13
COc1ccc(C(=O)NNC(=O)Cc2ccc(-c3ccccc3)cc2)cc1OC | -5.96
CCCn1ncc(C(=O)NC2CCCN(Cc3ccc(Cl)cc3)C2)c1C (stereo not shown) | 2.88
Cc1ccc(-c2noc(CSc3nnc(-c4ccncc4)n3-c3ccc(C)cc3)n2)cc1 | -6.06
COc1ccc(-n2c(SC)nc3ccccc3c2=O)cc1 | -3.85
CCn1c(CCNC(=O)c2ccccc2Cl)n[nH]c1=S | 4.18
Cc1cc(C(=O)CS(=O)(=O)c2ccccc2)cc(C)c1OC(=O)N(C)C | 12.3

SMILES | hERG current change (%, negative = inhibition) at 1uM [%]
Cc1ccc(C)c(NC(=O)c2cc(S(=O)(=O)N3CCCCC3)c[nH]2)c1 | 11.3
COc1ccc(CCNC(=O)c2cccc(S(=O)(=O)N3CCOCC3)c2)cc1OC | 19.7
O=C1C2CCCN2C(=O)N1CCN1CCN(CCO)CC1 (stereo not shown) | 9.8
CCOC(=O)c1ccc(N/C=C/C(=O)c2ccccc2)cc1 | 13.8
CCOc1cccc(/C=N/N2CCN(c3ccc(Cl)cc3)CC2)c1O | 16.2
COC(=O)c1sccc1NC(=O)C1CC(C)=C(C)CC1C(=O)O (stereo not shown) | 14.9
COc1ccc(OCC(O)CNC(=O)c2c(-c3ccccc3)noc2C)cc1 (stereo not shown) | 7.45
O=C(/C=C/c1ccccc1)NNC1=NS(=O)(=O)c2ccccc21 | 16.4
CCOC(=O)C1=C(O)C(=O)N(CCCn2ccnc2)C1c1ccc(C)cc1 (stereo not shown) | 14.5
O=C(CN1CCCCC1)Nc1cccc(Cl)c1Cl | 5.13
O=c1[nH]c(/C=C\c2cccc(O)c2)nc(O)c1[N+](=O)[O-] | 12.8
Cc1ccc(S(=O)(=O)CCC#N)cc1 | 9.07
COc1ccc(/C=N/c2oc(-c3ccccc3)cc2C#N)cc1 | 8.34
O=C(CSCc1ccccc1Cl)Nc1ccc(C(=O)O)cc1 | 20
O=C(CCS(=O)(=O)c1ccccc1)Nc1nc2cc3c(cc2s1)OCO3 | 10.3
O=C(c1cccs1)N(Cc1ccco1)c1nc(-c2ccc(F)cc2)cs1 | -1.03
CC(C)(C)CN1CCN(Cc2cc3ccccc3[nH]2)CC1CCO (stereo not shown) | 7.74
O=C(CCC(=O)N1CCOc2ccc(Cl)cc21)NCCCN1CCC(Cc2ccccc2)CC1 | -64.7
Cc1ccc(CNC(=O)C2(C)Oc3ccccc3NC2=O)cc1 (stereo not shown) | 1.94
CCN(CC(=O)NC(=O)NC1CCCC1)Cc1ccccc1 | 8.77
CC(C)CCCN1C(Nc2ccccc2)=NC[C@@H]1Cc1ccccc1 | -28.4
CCN(CC(=O)Nc1ccc(OC)cc1)C(=O)c1ccc([N+](=O)[O-])cc1 | 10.1

SMILES | hERG current change (%, negative = inhibition) at 1uM [%]
CCC1=Nc2cc(C(=O)NCC3CCCO3)ccc2Sc2ccc(Br)cc21 (stereo not shown) | 9.21
Cc1cc(-c2nnc(-c3cc4ccccc4oc3=O)o2)c(C)n1-c1ccccc1 | 9.2
CSCCCNC(=S)N1CCc2ccccc2C1 | 8.63
O=C(N/N=C/c1ccc(OC(=O)c2cccc(F)c2)cc1)c1cccnc1 | -16.2
Cc1cc(C)c(S(=O)(=O)N2CCOC2CNC(=O)C(=O)NCCCN2CCCC2=O)c(C)c1 (stereo not shown) | 7.05
O=[N+]([O-])c1ccc2nc(-c3ccc(OC(F)F)cc3)cn2c1 | -2.23
CC1(C)OC(C)(C)/C(=C\c2ccc(OCC(N)=O)cc2)C1=O | 10.4
CCCCn1c(CN2CCN(c3ccc(F)cc3)CC2)nc2c1c(=O)n(C)c(=O)n2C | 4.22
O=C(O)c1ccc(/C=N/Nc2ccc(S(=O)(=O)N3CCCC3)cc2[N+](=O)[O-])cc1 | 8.64
Cc1cc(C)nc(Nc2ccc(N3CCOCC3)cc2)n1 | 14.1
Cc1c(C(=O)Nc2ccc(F)cc2)cn2c(nc3ccccc32)c1C#N | 5.63
CC1(C)C2CCC(C2)C1(C)NC(=O)CN1CCCC1.Cl (stereo not shown) | 12.7
O=C(NC1=NCCS1)C1Cc2ccccc2CN1C(=O)c1ccccc1 (stereo not shown) | 5.48
CCn1cc(C(=O)N[C@H](C(=O)NCCCn2ccnc2)C(C)C)c(=O)c2cc3c(cc21)OCO3 | 19.1
Cc1cc(C)nc(OC(C(=O)O)C(OCc2ccccc2)(c2ccccc2)c2ccccc2)n1 (stereo not shown) | 20.2
O=S(=O)(c1ccc(Cl)c(S(=O)(=O)N2CCCC2)c1)N1CCCC1 | 9.15
COc1ccc(/C=C(\NC(=O)/C=C/c2ccco2)C(=O)NCCc2nc3ccccc3[nH]2)cc1 | -10.5
O=C(CSc1nnc(-c2ccco2)n1-c1ccccc1Cl)Nc1cccc(C(=O)O)c1 | 20.4
CCCn1c(=O)[nH]c(=O)c2c1nc(-c1cc([N+](=O)[O-])ccc1Cl)n2CCOC | 7.18
C/C(=N/NC(=O)CNC(=O)c1cccs1)c1ccc(Cl)cc1 | 14.8
O=C(Nc1ccc(N2CCOCC2)cc1)c1c(F)cccc1Cl | -0.893
O=C(Nc1cc(C(F)(F)F)ccc1Cl)c1ccc(NC(=O)C(F)(F)F)cc1 | 2.84

SMILES | hERG current change (%, negative = inhibition) at 1uM [%]
N#Cc1ccc(COc2ccc(CCO)cc2-n2nc3ccccc3n2)cc1 | -22.4
N#Cc1ccsc1NC(=O)c1ccc(Cl)c([N+](=O)[O-])c1 | 18.4
N#C/C(=C\c1ccc(N2CCCC2)c([N+](=O)[O-])c1)c1nc2ccccc2[nH]1 | -4.76
C[C@]12CCC(=O)C(O)=C1CC[C@@H]1[C@@H]2CC[C@]2(C)C(=O)CC[C@@H]12 | 7.7
CC(C)n1c2ccccc2c2nc3ccccc3nc21 | 4.8
O=C(O)CN1CCN(Cc2ccccc2F)C1=O | 13.4
N#CCSc1nnc(-c2ccc3c(c2)OCO3)o1 | 16.8
O=C(Nc1ccccc1C(=O)N/N=C/c1ccncc1)c1ccccc1 | 11
CN1C(=O)CSc2ccc(NC(=O)NCc3cccnc3)cc21 | 7.28
Cc1ccc2nc(-c3ccncc3)cc(C(=O)Nc3ccc(F)cc3C)c2c1 | 5.85
CCn1ncc(Br)c1C(=O)Nc1sc2c(c1C(=O)OC)CCC2 | -2.58
COc1ccc(CCNC(=O)CC(NS(=O)(=O)c2ccc(NC(C)=O)cc2)C(C)C)cc1OC (stereo not shown) | 15.8
CCOc1cnc(C(=O)NNC(=O)C(Br)C(C)C)o1 (stereo not shown) | 3.22
COc1cc2c(cc1NC(=O)Cc1ccc(C)cc1)oc1ccccc12 | -0.105
CC(C)N(CC#CC(O)(c1ccccc1)c1ccccc1)CCO | 7.65
COc1ccc(-c2nn(C)c(=O)c3ccccc23)cc1NC(=O)Cn1nc(C)c2ccccc2c1=O | -8.55
CC(C)C(=O)OCCN=C1NS(=O)(=O)c2ccccc21 | -6.65
CS(=O)(=O)Nc1ccc(C(=O)N2CCc3ccccc3C2)cc1 | 3.75
COc1ccccc1S(=O)(=O)CC(O)COc1ccc(F)cc1Cl (stereo not shown) | 12.6
CCN(CC(=O)Nc1ccc(NC(C)=O)cc1)C(=O)C1CC(=O)N(CCc2ccc(OC)c(OC)c2)C1 (stereo not shown) | 0.0909
CNC(=S)NCCCc1ccccc1 | -0.904
COc1cccc(NC(C)C(=O)N2CC(C)OC(C)C2)c1 (stereo not shown) | 5.02
